Results on 26 molecules are retold here after the supplement of paper PMC9174493.

The subject of assay [1] is A549-Dual. In words: NF-kB reporter (SEAP) activity, viability-corrected, relative to vehicle (fold change vs vehicle); higher = more activation of STING-IRF / NF-kB immune response reporter. Conditions: 10 µM.
Assay [2] concerns A549-Dual. Briefly: ISRE reporter (Lucia luciferase) activity, viability-corrected, relative to vehicle (fold change vs vehicle); higher = more activation of STING-IRF / NF-kB immune response reporter. Conditions: 10 µM.

Some of the results follow. Single values of this set are uncertain. Values with irradiation are relative to irradiated vehicle.
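Throughout, for NF-kB reporter (SEAP) activity, viability-corrected, relative to vehicle: viability correction based on the alamar blue assay, with concentrations leaving 10% survival or less dropped.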

Consider `CO/N=C(\C(=O)NC1C(=O)N2C(C(=O)[O-])=CCSC12)c1csc(N)n1.[Na+]` (centres undefined) [Ceftizoxime sodium], for which the NF-kB reporter amounted to 0.827 in the assay with A549-Dual [1] (irradiation: 8 Gy/4 fr) and 0.981 in the assay with A549-Dual [1] (irradiation: none). Besides, the values for the ISRE reporter with A549-Dual [2] (irradiation: 8 Gy/4 fr) and in the assay on A549-Dual [2] (irradiation: none) were 0.767 and 0.769, respectively.

As to `CS(=O)(=O)c1cccc(CC(NC(=O)c2c(Cl)cc3c(c2Cl)CCN(C(=O)c2ccc4ccoc4c2)C3)C(=O)O)c1` (centres undefined) [Lifitegrast], the NF-kB reporter was 1.4 in the assay on A549-Dual [1] (irradiation: 8 Gy/4 fr) and 1.22 with A549-Dual [1] (irradiation: none). Also, the ISRE reporter with A549-Dual [2] (irradiation: 8 Gy/4 fr) was found to be 1.16; in the assay on A549-Dual [2] (irradiation: none), 0.899.

For the molecule `Oc1c(Cl)cc(Cl)c2cccnc12` [Chloroxine], the NF-kB reporter in the assay on A549-Dual [1] (irradiation: 8 Gy/4 fr) worked out at 0.259; in the assay with A549-Dual [1] (irradiation: none), 0.392. Moreover, the ISRE reporter with A549-Dual [2] (irradiation: 8 Gy/4 fr) is 0.0836; in the assay with A549-Dual [2] (irradiation: none), 0.184.

As to `CCOCCn1c(N2CCCN(C)CC2)nc2ccccc21` [Emedastine], the NF-kB reporter turned out to be 0.929 with A549-Dual [1] (irradiation: 8 Gy/4 fr) and 1.09 with A549-Dual [1] (irradiation: none). The ISRE reporter in the assay on A549-Dual [2] (irradiation: 8 Gy/4 fr) worked out at 0.728; in the assay on A549-Dual [2] (irradiation: none), 0.561.

Take `Cc1nccn1CC1CCc2c(c3ccccc3n2C)C1=O.Cl.O.O` (centres undefined) [Ondansetron Hydrochloride Dihydrate]: the results for the NF-kB reporter with A549-Dual [1] (irradiation: 8 Gy/4 fr) and in the assay with A549-Dual [1] (irradiation: none) were 0.624 and 1.19, respectively. The ISRE reporter in the assay with A549-Dual [2] (irradiation: 8 Gy/4 fr) is 0.591; with A549-Dual [2] (irradiation: none) it was 0.618.

Turning to `CC(COc1ccccc1)NC(C)C(O)c1ccc(O)cc1.Cl` (centres undefined) [Isoxsuprine hydrochloride], the NF-kB reporter with A549-Dual [1] (irradiation: 8 Gy/4 fr) worked out at 0.739; with A549-Dual [1] (irradiation: none), 1.27. Also, the ISRE reporter in the assay with A549-Dual [2] (irradiation: 8 Gy/4 fr) stood at 0.897; with A549-Dual [2] (irradiation: none), 1.13.

Turning to `Cc1ncc(CO)c(CO)c1O.O=C1CCC(C(=O)O)N1` [Metadoxine], the NF-kB reporter in the assay on A549-Dual [1] (irradiation: 8 Gy/4 fr) is 0.539; in the assay on A549-Dual [1] (irradiation: none) it was 1.12. In addition, the ISRE reporter came out at 0.521 in the assay on A549-Dual [2] (irradiation: 8 Gy/4 fr) and 0.626 in the assay on A549-Dual [2] (irradiation: none).

For the molecule `N=C(N)Nc1nc(CSCCC(=N)NS(N)(=O)=O)cs1` [Famotidine], the values for the NF-kB reporter in the assay on A549-Dual [1] (irradiation: 8 Gy/4 fr) and with A549-Dual [1] (irradiation: none) were 0.842 and 1.02, respectively. In addition, the results for the ISRE reporter in the assay with A549-Dual [2] (irradiation: 8 Gy/4 fr) and in the assay on A549-Dual [2] (irradiation: none) were 0.754 and 0.76, respectively.

In the case of `CCc1c(C)[nH]c2c1C(=O)C(CN1CCOCC1)CC2.Cl` (centres undefined) [Molindone hydrochloride], the figures for the NF-kB reporter in the assay on A549-Dual [1] (irradiation: 8 Gy/4 fr) and in the assay on A549-Dual [1] (irradiation: none) were 1.04 and 1.52, respectively. Further, the values for the ISRE reporter in the assay on A549-Dual [2] (irradiation: 8 Gy/4 fr) and in the assay with A549-Dual [2] (irradiation: none) were 0.673 and 0.729, respectively.

As for `CN1CCN(CC(=O)N2c3ccccc3C(=O)Nc3cccnc32)CC1.Cl.Cl` [Pirenzepine dihydrochloride], the NF-kB reporter in the assay with A549-Dual [1] (irradiation: 8 Gy/4 fr) was 0.899; with A549-Dual [1] (irradiation: none) it was 1.01. In addition, the ISRE reporter in the assay with A549-Dual [2] (irradiation: 8 Gy/4 fr) turned out to be 0.919; in the assay on A549-Dual [2] (irradiation: none), 0.94.

For the molecule `CCCCOc1cc(C(=O)NCCN(CC)CC)c2ccccc2n1.Cl` [Dibucaine HCl], the NF-kB reporter with A549-Dual [1] (irradiation: 8 Gy/4 fr) stood at 0.664; in the assay on A549-Dual [1] (irradiation: none), 1.18. The ISRE reporter in the assay on A549-Dual [2] (irradiation: 8 Gy/4 fr) was found to be 0.713; in the assay on A549-Dual [2] (irradiation: none) it was 1.56.

Turning to `O=C(Nc1cc(Cl)cc(Cl)c1O)c1c(O)c(Cl)cc(Cl)c1Cl` [Oxyclozanide], the figures for the NF-kB reporter with A549-Dual [1] (irradiation: 8 Gy/4 fr) and in the assay on A549-Dual [1] (irradiation: none) were 2.05 and 3.23, respectively. For the same molecule, the values for the ISRE reporter in the assay with A549-Dual [2] (irradiation: 8 Gy/4 fr) and with A549-Dual [2] (irradiation: none) were 0.395 and 1.12, respectively.

As to `CC(C)c1nc(N(C)S(C)(=O)=O)nc(-c2ccc(F)cc2)c1/C=C/C(O)CC(O)CC(=O)O` (centres undefined) [Rosuvastatin], the NF-kB reporter with A549-Dual [1] (irradiation: 8 Gy/4 fr) turned out to be 0.915; in the assay with A549-Dual [1] (irradiation: none), 0.927. Moreover, the ISRE reporter in the assay with A549-Dual [2] (irradiation: 8 Gy/4 fr) was 0.979; in the assay with A549-Dual [2] (irradiation: none), 1.02.

With `CO/N=C(\C(=O)N[C@@H]1C(=O)N2C(C(=O)[O-])=C(CSc3nc(C)c(CC(=O)[O-])s3)CS[C@H]12)c1csc(N)n1.[Na+].[Na+]` [Cefodizime Sodium], the figures for the NF-kB reporter with A549-Dual [1] (irradiation: 8 Gy/4 fr) and in the assay on A549-Dual [1] (irradiation: none) were 0.892 and 0.935, respectively. Moreover, the ISRE reporter came to 0.854 in the assay with A549-Dual [2] (irradiation: 8 Gy/4 fr) and 0.689 in the assay on A549-Dual [2] (irradiation: none).

Turning to `COc1ccnc(CS(=O)c2nc3cc(-n4cccc4)ccc3[n]2[Na])c1C` (centres undefined) [Ilaprazole sodium], the NF-kB reporter was found to be 1.14 with A549-Dual [1] (irradiation: 8 Gy/4 fr) and 0.957 in the assay on A549-Dual [1] (irradiation: none). The ISRE reporter in the assay with A549-Dual [2] (irradiation: 8 Gy/4 fr) was determined as 1.34; in the assay on A549-Dual [2] (irradiation: none), 1.3.

As for `COc1ccc2c(c1)C(=O)N(CCc1ccc(S(=O)(=O)NC(=O)NC3CCCCC3)cc1)C(=O)C2(C)C` [Gliquidone], the NF-kB reporter in the assay with A549-Dual [1] (irradiation: 8 Gy/4 fr) worked out at 0.598; in the assay on A549-Dual [1] (irradiation: none) it was 0.658. Besides, the ISRE reporter in the assay on A549-Dual [2] (irradiation: 8 Gy/4 fr) was 0.626; in the assay with A549-Dual [2] (irradiation: none) it was 0.762.

In the case of `COc1ccccc1N1CCN(CCCNc2cc(=O)n(C)c(=O)n2C)CC1.Cl` [Urapidil HCl], the NF-kB reporter in the assay with A549-Dual [1] (irradiation: 8 Gy/4 fr) came to 0.955; in the assay with A549-Dual [1] (irradiation: none), 0.998. Moreover, the ISRE reporter in the assay with A549-Dual [2] (irradiation: 8 Gy/4 fr) was 0.921; in the assay with A549-Dual [2] (irradiation: none), 0.892.

For `CC(=O)N(O)CCCCCNC(=O)CCC(=O)N(O)CCCCCNC(=O)CCC(=O)N(O)CCCCCN.CS(=O)(=O)O` [Deferoxamine mesylate], the values for the NF-kB reporter in the assay with A549-Dual [1] (irradiation: 8 Gy/4 fr) and with A549-Dual [1] (irradiation: none) were 0.814 and 0.946, respectively. Further, the ISRE reporter in the assay with A549-Dual [2] (irradiation: 8 Gy/4 fr) worked out at 0.194; in the assay on A549-Dual [2] (irradiation: none), 0.34.

For the molecule `OCC(O)CN1CCN(c2ccccc2)CC1` (centres undefined) [Levodropropizine], the NF-kB reporter in the assay with A549-Dual [1] (irradiation: 8 Gy/4 fr) worked out at 0.794; in the assay with A549-Dual [1] (irradiation: none) it was 1.23. Moreover, the ISRE reporter in the assay with A549-Dual [2] (irradiation: 8 Gy/4 fr) was found to be 0.918; with A549-Dual [2] (irradiation: none), 0.683.

`C#CC1(O)CCC2C3CCc4cc(OC5CCCC5)ccc4C3CCC21C` (centres undefined) [Quinestrol]: the figures for the NF-kB reporter in the assay with A549-Dual [1] (irradiation: 8 Gy/4 fr) and in the assay on A549-Dual [1] (irradiation: none) were 0.838 and 1.06, respectively. Besides, the ISRE reporter in the assay with A549-Dual [2] (irradiation: 8 Gy/4 fr) was determined as 0.851; with A549-Dual [2] (irradiation: none), 0.912.

For `CCOC(=O)c1cc(O)c(O)c(O)c1` [Ethyl gallate], the values for the NF-kB reporter in the assay on A549-Dual [1] (irradiation: 8 Gy/4 fr) and in the assay on A549-Dual [1] (irradiation: none) were 1.2 and 0.936, respectively. The ISRE reporter turned out to be 1.08 with A549-Dual [2] (irradiation: 8 Gy/4 fr) and 0.75 in the assay with A549-Dual [2] (irradiation: none).

`O=C(NCCO[N+](=O)[O-])c1cccnc1` [Nicorandil]: the NF-kB reporter in the assay with A549-Dual [1] (irradiation: 8 Gy/4 fr) worked out at 0.837; in the assay on A549-Dual [1] (irradiation: none), 1.03. Moreover, the results for the ISRE reporter in the assay with A549-Dual [2] (irradiation: 8 Gy/4 fr) and in the assay on A549-Dual [2] (irradiation: none) were 0.873 and 0.823, respectively.

For the molecule `Cc1ccccc1N1C(=O)c2cc(S(N)(=O)=O)c(Cl)cc2NC1C` (centres undefined) [Metolazone], the NF-kB reporter with A549-Dual [1] (irradiation: 8 Gy/4 fr) was 0.864; with A549-Dual [1] (irradiation: none), 0.886. Further, the ISRE reporter amounted to 0.86 in the assay on A549-Dual [2] (irradiation: 8 Gy/4 fr) and 0.718 in the assay with A549-Dual [2] (irradiation: none).

Consider `O=C(O)CSc1nnc(Br)n1-c1ccc(C2CC2)c2ccccc12` [Lesinurad], for which the NF-kB reporter with A549-Dual [1] (irradiation: 8 Gy/4 fr) stood at 0.847; in the assay with A549-Dual [1] (irradiation: none), 0.717. Besides, the ISRE reporter in the assay on A549-Dual [2] (irradiation: 8 Gy/4 fr) was 0.665; in the assay with A549-Dual [2] (irradiation: none), 0.701.

Take `O=C(O)c1ccccc1C(=O)O` [Phthalic acid]: the values for the NF-kB reporter in the assay on A549-Dual [1] (irradiation: 8 Gy/4 fr) and with A549-Dual [1] (irradiation: none) were 1.21 and 0.725, respectively. Also, the figures for the ISRE reporter in the assay on A549-Dual [2] (irradiation: 8 Gy/4 fr) and in the assay on A549-Dual [2] (irradiation: none) were 1.17 and 0.47, respectively.

For the molecule `Cc1oc(=O)oc1CN1CCN(c2cc3c(cc2F)c(=O)c(C(=O)O)c2n3C(C)S2)CC1` (centres undefined) [Prulifloxacin (NM441, AF 3013)], the NF-kB reporter stood at 0.966 in the assay with A549-Dual [1] (irradiation: 8 Gy/4 fr) and 1.1 with A549-Dual [1] (irradiation: none). In addition, the ISRE reporter turned out to be 0.879 in the assay with A549-Dual [2] (irradiation: 8 Gy/4 fr) and 0.88 with A549-Dual [2] (irradiation: none).
